# Assay results taken from PubChem BioAssay AID488969 (Vanderbilt High Throughput Screening Facility, 2010).
# Over roughly 110,000 compounds, “z-score” has its median near -0.1; the highest 2% begin near 2. This is one part of the list. Active and inactive are the calls of the source.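 Rule for the calls: active = z-score in the third read window above 3 or below -3; inactive = the rest.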
# Target: Metabotropic glutamate receptor 8 (Rattus norvegicus) (UniProt P70579)
# Experiment: rat mGluR8 modulators via GIRK flux, primary screen, cell-based, thallium flux, HTS (AID 488969)
# Details: HEK293 rat mGluR8, GIRK (G protein-gated inwardly rectifying potassium channel) thallium flux, FluoZin2; at 10 µM; stronger effect = higher value; submaximal glutamate (EC20) added with thallium
# Sequence of UniProt P70579 (P70579 whole entry, looked up): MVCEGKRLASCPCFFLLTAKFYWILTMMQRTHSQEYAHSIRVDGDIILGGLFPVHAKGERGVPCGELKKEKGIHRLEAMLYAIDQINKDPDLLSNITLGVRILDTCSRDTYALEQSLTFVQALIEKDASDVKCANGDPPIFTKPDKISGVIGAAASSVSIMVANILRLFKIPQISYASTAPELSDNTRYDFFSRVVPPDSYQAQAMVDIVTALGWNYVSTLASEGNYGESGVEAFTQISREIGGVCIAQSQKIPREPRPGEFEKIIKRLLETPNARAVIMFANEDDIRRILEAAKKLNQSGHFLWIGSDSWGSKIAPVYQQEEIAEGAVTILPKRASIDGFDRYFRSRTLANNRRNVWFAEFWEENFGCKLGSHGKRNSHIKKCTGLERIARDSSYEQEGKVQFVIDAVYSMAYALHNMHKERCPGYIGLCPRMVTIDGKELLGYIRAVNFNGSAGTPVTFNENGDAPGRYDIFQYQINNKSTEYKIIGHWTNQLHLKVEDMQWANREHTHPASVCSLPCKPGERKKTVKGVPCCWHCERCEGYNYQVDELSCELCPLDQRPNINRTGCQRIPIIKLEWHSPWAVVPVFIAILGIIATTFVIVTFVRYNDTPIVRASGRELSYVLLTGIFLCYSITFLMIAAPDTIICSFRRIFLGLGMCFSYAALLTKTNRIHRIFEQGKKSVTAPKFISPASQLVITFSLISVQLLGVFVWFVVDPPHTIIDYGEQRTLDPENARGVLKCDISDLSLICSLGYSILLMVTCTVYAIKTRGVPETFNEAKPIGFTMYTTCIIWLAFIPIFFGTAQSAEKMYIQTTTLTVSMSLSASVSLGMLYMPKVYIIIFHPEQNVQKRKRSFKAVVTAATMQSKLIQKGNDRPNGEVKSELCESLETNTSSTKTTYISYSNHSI
row,SMILES,z-score
1,Cc1cc([N+](=O)[O-])ccc1NC(=O)c1cncc(Br)c1,-0.249
2,CCc1nc2ccccc2c(C(=O)Oc2ccc(C(=O)OC)cc2)c1C,0.354
3,O=C(CN1C(=O)CC(c2ccccc2)=Nc2ccccc21)NCc1ccco1,-0.414
4,COc1cc(S(=O)(=O)N(C)C)ccc1F,-0.0878
5,CCCN(Cc1ccc(N(C)C)cc1)CC1CC1,-0.858
6,Cc1cc(-c2cccs2)nc(-n2cccc2)n1,-0.173
7,CCOC(=O)CSc1cccc2cccnc12,active: 4.08
8,Cc1cccc(NC(=O)Cn2cnc3ccc(S(=O)(=O)N4CCC(C)CC4)cc3c2=O)n1,-0.921
9,O=P(O)(O)CP(=O)(O)O,0.0712
10,CCc1nc(SCC(=O)NCc2ccccc2)c2c(=O)n(C)c(=O)n(C)c2n1,-0.451
11,CCSc1nc2c(c(=O)[nH]1)C(c1cccnc1)C(C(=O)OC(C)C)=C(C)N2 (configuration not stated),0.232
12,CN(C)CCNC(=O)/C(=C/c1ccc(-c2ccc(Cl)cc2Cl)o1)NC(=O)c1ccccc1,1.11
13,Cc1nn(Cc2ccccc2)c(Cl)c1C(=O)OCc1nnc(-c2ccc(Cl)cc2)o1,0.144
14,O=C1CC(c2ccccc2)n2nc(NC(=O)c3ccccc3)nc2N1 (configuration not stated),0.0993
15,COc1ccc2nc(C)cc(SCC(=O)Nc3c(C)cc(C)cc3C)c2c1,-0.106
16,COC(=O)C1=C(NC(=O)c2cccs2)CCS1,-0.0166
17,COc1ccc(/C=N\NC(=O)CCc2c(C)n[nH]c2C)c(OC)c1OC,-0.262
18,Cc1nn(-c2ccccc2)c2c1C(c1ccc([N+](=O)[O-])cc1)N1C(=N2)C(=O)Nc2ccccc21 (configuration not stated),-0.45
19,Cc1ccc2ncc([N+](=O)[O-])n2c1,0.0429
20,COC(=O)C1=C(C)N(C2CCCCC2)C(=O)C1,-0.179
21,CC1(C)Cc2c(sc(NC(=O)C(C)(C)C)c2C#N)C(C)(C)N1,0.0442
22,CCOC(=O)c1cc(C(=O)Nc2ccc(C)c(F)c2)nn1C,-0.369
23,CCOc1c(OC)ccc2c3c(c(=O)oc12)CCCC3,-1.06

row,SMILES,z-score
1,COc1ccc(C(=O)CSc2nnc(CNC(=O)c3ccc(OC)c(OC)c3)n2C)cc1,-0.646
2,CC(C)CCNC(=O)NC(=O)CSc1nnc(COc2ccccc2Cl)o1,-0.278
3,CSc1ccc(-c2nnn(Cc3ccc(Br)cc3)n2)cc1,-0.0597
4,COc1cc(NC(=S)N2CCN(C/C=C/c3ccccc3)CC2)cc(OC)c1,-0.303
5,O=c1oc2ccc3ccccc3c2c2c1SC(C(F)(F)F)C2 (configuration not stated),-0.243
6,CCn1nnnc1SCC(=O)c1ccc(NC(C)=O)cc1,-0.32
7,O=C(Nc1ccccc1Cc1ccccc1)c1ccc2c(c1)SC1=NS(=O)(=O)CCN12,0.079
8,CC(C(=O)NC1CCCCCC1)N(c1ccccc1)S(C)(=O)=O (configuration not stated),-0.247
9,CC1=CC(C)(C)n2c(O)c(C3=NC(=S)NC3=O)c3cc(OC(=O)c4cccc5ccccc45)cc1c32,0.0745
10,CC(=O)NNc1ccc(C(F)(F)F)cc1[N+](=O)[O-],0.121
11,COc1cc(C(N)=O)cc(Br)c1OCc1ccccc1,-0.202
12,Cc1ccc(OCC(=O)Nc2cccc(S(=O)(=O)N3CCCCC3)c2)c([N+](=O)[O-])n1,0.216
13,Cc1cccc(C)c1NS(=O)(=O)c1c(C)[nH]c(=O)[nH]c1=O,0.567
14,CC(OC(=O)/C=C/c1ccco1)C(=O)Nc1cccc([N+](=O)[O-])c1 (configuration not stated),-0.214
15,N#Cc1c(-c2ccco2)cc(-c2cccnc2)nc1N,-0.682
16,C=CCOC(=O)Nc1snnc1C,-0.148
17,CN(C)/C=C1\N=C(c2ccc3c(c2)OCO3)OC1=O,-0.144
18,COc1ccc(F)cc1S(=O)(=O)N1CCCN(S(=O)(=O)c2cc(F)ccc2OC)CC1,0.471
19,C=CCNc1ncnc2c1[nH]c1ccc(Cl)cc12,-0.349
20,CCCCC(=O)Nc1ccc(NC(=O)C2CC2)nc1,0.252
21,CC(=O)c1cccc(N(C(=O)c2cnccn2)C(C(=O)NCc2ccccc2)c2ccco2)c1 (configuration not stated),0.223
22,Cc1c(C(O)CN2CCN(Cc3ccc4c(c3)OCO4)CC2)c2ccccc2n1C (configuration not stated),-0.173
23,Cc1ccccc1NC(=O)COC(=O)CNC(=O)c1sc2ccccc2c1Cl,-1.08

row,SMILES,z-score
1,CCCCOc1ccc(C(=O)Nn2cnnc2)cc1,-0.26
2,COc1ccc(-c2nc(CS(=O)CC(=O)NCc3cccnc3)c(C)o2)cc1OC (configuration not stated),0.196
3,COc1ccc2c(C)nc(Nc3nc(C)cc(C)n3)nc2c1,0.0553
4,COc1cc(OC)cc(C(=O)NC(=S)N2CCN(c3ccc(C(F)(F)F)cc3[N+](=O)[O-])CC2)c1,active: 4.05
5,Cc1noc(NS(=O)(=O)c2ccc(N3Cc4ccccc4C3=O)cc2)c1C,0.00277
6,CC1=C(C(N)=O)C(c2ccccc2)n2nc(-c3ccncc3)nc2N1 (configuration not stated),0.846
7,NC(=O)CSc1nc2scc(-c3ccco3)c2c(=O)n1-c1ccccc1,-0.118
8,OC(CN1C2=NCCN2c2ccccc21)c1ccc(Br)cc1 (configuration not stated),0.254
9,NC(=O)c1ccc(-n2nnnc2Oc2ccccc2)cc1,-0.23
10,Cc1ccc(S(=O)(=O)CC(C)N2CCN(C3CCCCC3)CC2)cc1 (configuration not stated),1.44
11,O=C(COC(=O)C12CC3CC(CC(C3)C1)C2)Nc1ncc(Cl)cc1Cl,-0.129
12,Cc1nn(C(=O)c2ccco2)c(C)c1CN1C(=O)c2ccccc2C1=O,0.109
13,O=C(Cc1c[nH]c2ccccc12)OCCOC(=O)Cc1c[nH]c2ccccc12,0.897
14,CCN(CC)C(=O)c1cc(-c2ccccc2OC)on1,-0.301
15,O=C(c1cc(C2CC2)on1)N1CCN(C(c2ccccc2)c2ccccc2)CC1,0.806
16,NC(=O)CC1(CC(=O)O)CCCCC1,0.0592
17,O=C(O)CCc1nn2cc(-c3ccccc3)nc2[nH]c1=O,0.171
18,COc1cccc2[nH]c3c(N4CC(C)CC(C)C4)ncnc3c12 (configuration not stated),-0.272
19,O=S1(=O)CC2N=C(N(Cc3ccc(F)cc3Cl)c3ccccc3F)SC2C1 (configuration not stated),-0.36
20,O=C(O)CCc1ccc(-c2ccc(F)cc2)n1CC1CCCO1 (configuration not stated),0.138
21,COc1ccccc1NC(=O)c1cccnc1,0.226
22,CCC(C)NC(=O)c1cn(CC)c2ccc(S(=O)(=O)N(C)C)cc2c1=O (configuration not stated),0.718
23,O=C(O)c1cccc(NS(=O)(=O)c2ccc3nnn(O)c3c2)c1,0.0264

row,SMILES,z-score
1,C/C(=N\N=C(/N)SC1CC(=O)N(c2ccc(Cl)c(Cl)c2)C1=O)c1cccs1 (configuration not stated),0.068
2,COc1ccc(NC(=O)Cn2c(-c3ccc(OC)cc3)cn(-c3ccc(C)cc3)c2=O)cc1,0.0343
3,O=S(=O)(Nc1cccc(-c2cn3cccnc3n2)c1)c1ccc(-c2ccccc2)cc1,-0.14
4,CC(C)NC(=O)c1onc(CSc2cccc(Cl)c2)c1C(=O)O,-0.616
5,O=C(CSc1nnc(-c2cccnc2)o1)OC1CCCCC1,0.233
6,COc1ccc(/C=N\NC(=O)C2C(=O)NCC2c2ccccc2)cc1O (configuration not stated),-0.454
7,Fc1ccc(NC(=S)N2CCCC2)cc1,-0.0754
8,CSc1ncccc1C(=O)OCC(=O)N1CCOCC1,-0.0296
9,CCOC(=O)c1c(C)c(-c2ccccc2)n(CC(=O)N2CCCC2)c1C,-0.879
10,COc1ccc(-n2c(COc3cccc4ccccc34)nnc2SCC#N)cc1,0.112
11,COc1cc(-c2nc3cnccn3c2Nc2ccccc2)ccc1O,-1.02
12,CC(C)C(=O)Nc1ccc(NC(=O)c2cccnc2)cn1,-0.133
13,Cc1ccc(S(=O)(=O)N(CC(=O)NCc2ccco2)Cc2ccc(F)cc2)cc1,1.39
14,O=C(c1ccc(Br)o1)N1CCCc2ccccc21,-0.269
15,COCCn1c(SCC(=O)N2CC(=O)Nc3ccccc32)nnc1-c1ccoc1C,-1.06
16,Cc1ccc(NC(=O)c2ccc(C#CC3(O)CCCCC3)cc2)cc1C,0.0635
17,Cc1sc(NC(=O)c2ccc(OCC(C)C)cc2)c(C(N)=O)c1-c1ccc(Cl)cc1Cl,-0.467
18,O=C(CCCCCCN1C(=O)c2ccccc2C1=O)N1CCC(c2ccccc2)C1 (configuration not stated),-0.18
19,CC1(C)CC(CC(=O)O)C(=O)O1 (configuration not stated),-0.0347
20,Cc1ccc(NC(=O)CSc2ncccc2C(=O)Oc2cccc([N+](=O)[O-])c2)cc1Cl,0.00133
21,CCNS(=O)(=O)c1cc(Br)ccc1OC,0.208
22,CC(C)=CC(=O)OCC(=O)NC(=O)NC(C)(C)C,0.42
23,COc1nc(-c2ccccc2)cc(C(F)(F)F)n1,0.0363

row,SMILES,z-score
1,CN(C)c1nc(-c2ccccc2)nnc1C(F)(F)F,-0.148
2,CS(=O)(=O)c1nc(-c2ccccc2)cc(-c2ccccc2)c1C#N,-0.425
3,O=C(Cn1nnc(-c2ccccc2)n1)N=Nc1c(O)[nH]c2ccccc12,-0.0918
4,O=[N+]([O-])c1cc(C(F)(F)F)ccc1N/N=C/c1cc2ccccc2nc1Cl,0.0742
5,COc1ccc(C2=NOC(C(=O)Nc3c(C)n(C)n(-c4ccccc4)c3=O)C2)cc1OC (configuration not stated),0.047
6,COC(=O)CSc1ccccc1C(=O)OC,0.099
7,CCCCSc1nnc(-c2cc3c(C(F)(F)F)nn(C)c3s2)n1C,-0.355
8,COc1ccc2cnn(-c3ccc(C)cc3)c(=O)c2c1OC,0.631
9,CCN(C(=O)Cc1cccs1)c1nnc(-c2cccnc2)s1,-0.0591
10,CCOC(=O)NNC(=O)c1ccc(Cl)cc1,-0.178
11,COc1ccccc1N1CCN(C(=O)CCNS(=O)(=O)c2ccc3c(c2)CCC(=O)N3)CC1,-0.0767
12,Cc1cc2oc(=O)cc(CN3CCN(S(=O)(=O)c4cccs4)CC3)c2cc1C(C)C,-0.253
13,CC1(C)Cc2ccccc2-c2nnc(-c3cccc(O)c3)n21,-0.189
14,O=C1C=CC(=O)N1N(c1ccccc1)c1ccccc1,-0.346
15,COc1ccccc1-c1cc(-c2cc(Cl)ccc2O)n[nH]1,-0.369
16,CCOC(=O)NC(NCCc1ccccc1)(C(F)(F)F)C(F)(F)F,0.322
17,O=C(O)c1ccccc1NCN1C(=O)C2CC=C(Cl)CC2C1=O (configuration not stated),-0.567
18,CSc1ncc(C(=O)O)c(C)n1,0.51
19,O=C(O)c1ccccc1C(=O)Nc1ccc(-c2csc(-c3ccccc3)n2)cc1,active: -3.01
20,CCN(CC(=O)NC1CCS(=O)(=O)C1)S(=O)(=O)c1ccc(C)cc1C (configuration not stated),0.0233
